Measured values from publication PMC4336329 (PLoS ONE, 2015).
Screen size: about 310,000 compounds; about 2,200 (0.71%) showed an effect of 50% or more. The effect is printed as a negative number. The list shows a part of the results.

These molecules were tested against human ether-à-go-go-related gene (hERG) potassium channel (human, UniProt Q12809) (assay: primary screen, population patch clamp on CHO cells stably expressing hERG).
Chain of human ether-à-go-go-related gene (hERG) potassium channel (Q12809 whole entry, looked up): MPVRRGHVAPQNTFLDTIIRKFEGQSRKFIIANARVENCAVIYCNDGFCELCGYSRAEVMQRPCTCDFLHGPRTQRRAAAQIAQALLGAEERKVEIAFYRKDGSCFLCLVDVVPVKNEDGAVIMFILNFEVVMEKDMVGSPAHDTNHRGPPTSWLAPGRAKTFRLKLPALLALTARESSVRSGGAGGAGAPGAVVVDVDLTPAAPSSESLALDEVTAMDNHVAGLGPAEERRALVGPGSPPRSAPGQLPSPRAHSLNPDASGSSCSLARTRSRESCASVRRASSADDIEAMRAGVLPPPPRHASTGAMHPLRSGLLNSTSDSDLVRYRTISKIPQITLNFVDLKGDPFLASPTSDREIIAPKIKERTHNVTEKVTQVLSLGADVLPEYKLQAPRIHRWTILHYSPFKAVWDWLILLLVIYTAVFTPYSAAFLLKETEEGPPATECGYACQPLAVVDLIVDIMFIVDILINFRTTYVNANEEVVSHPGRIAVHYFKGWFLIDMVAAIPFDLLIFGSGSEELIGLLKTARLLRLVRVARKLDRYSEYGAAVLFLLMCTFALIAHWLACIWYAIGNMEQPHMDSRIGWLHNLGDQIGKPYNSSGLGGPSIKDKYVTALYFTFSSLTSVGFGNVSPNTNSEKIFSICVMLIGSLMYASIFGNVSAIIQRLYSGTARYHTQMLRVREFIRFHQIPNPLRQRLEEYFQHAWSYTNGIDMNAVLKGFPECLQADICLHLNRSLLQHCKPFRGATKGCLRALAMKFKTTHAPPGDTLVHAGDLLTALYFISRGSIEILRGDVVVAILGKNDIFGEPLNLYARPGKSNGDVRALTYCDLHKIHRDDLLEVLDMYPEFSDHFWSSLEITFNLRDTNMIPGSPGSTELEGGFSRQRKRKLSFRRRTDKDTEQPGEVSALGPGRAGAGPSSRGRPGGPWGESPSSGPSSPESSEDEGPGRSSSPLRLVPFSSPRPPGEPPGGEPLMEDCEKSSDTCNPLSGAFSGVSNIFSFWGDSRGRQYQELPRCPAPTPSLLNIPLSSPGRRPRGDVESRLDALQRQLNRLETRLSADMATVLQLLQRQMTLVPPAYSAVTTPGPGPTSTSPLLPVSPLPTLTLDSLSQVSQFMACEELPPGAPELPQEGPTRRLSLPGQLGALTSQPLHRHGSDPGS

SMILES	hERG current change (%, negative = inhibition) at 1uM
CC(Sc1nc2scc(-c3ccccc3)c2c(=O)[nH]1)C(=O)NC(N)=O (stereo not drawn)	8.85%
Cc1ccc(NC(=O)COc2ccc(C3SCCS3)cc2)cc1	1.47%
CCOc1ccccc1C(=O)OCC(=O)NCCc1ccc(OC)cc1	-0.681%
Cc1ccc(C)c(/C=C/C(=O)c2ccccc(=O)c2O)c1	-2.1%
Brc1cc2c(cc1COc1ccc(-c3nn[nH]n3)cc1)OCO2	8.02%
Cn1c(=O)c2c(nc(NCc3ccc4c(c3)OCO4)n2Cc2ccccc2)n(C)c1=O	5.61%
CC(C)Sc1nc2c(c(=O)[nH]c(=O)n2C)n1C	2%
COc1ccc(N2CCN(C(=O)Cc3coc4cc(C)ccc34)CC2)cc1	10.3%
Cc1ccc(/C=C/C(=O)NN2CCN(C)CC2)cc1	16.3%
CCOC(=O)C1CCN(S(=O)(=O)c2ccc(NC(=O)OC)cc2)CC1	-18.1%
CCCC1C(=O)Nc2ccccc2N1C(=O)c1cccc(C)c1 (stereo not drawn)	9.48%
CN(C)S(=O)(=O)c1ccc(C(=O)Nc2cc(=O)n(C)c(=O)n2C)cc1	19.9%
CCOC(=O)c1[nH]c2ccc(OC)cc2c1NC(=O)CCN1CCC(C)CC1	2.44%
C=C(C)C1CC=C(C)/C(=N/NC(=O)COc2ccc(Cl)cc2)C1 (stereo not drawn)	10.2%
CC1=C(C(=O)OC(C)C)C(C)NC(=O)N1 (stereo not drawn)	-8.01%
CCOc1ccc2ccccc2c1/C=N/NC(=O)CNC(=O)c1ccccc1F	9.07%
COc1cc(C(=S)N2CCCC2)cc(OC)c1OS(=O)(=O)c1ccc(NC(C)=O)cc1	6.43%
O=C1COc2ccc(-c3csc(NCCc4ccccc4)n3)cc2N1	5.62%
O=C(O)c1ccccc1C(=O)c1ccc(N2CCOCC2)c([N+](=O)[O-])c1	11.9%
COc1ccc(C(=O)Nc2ccc3nc(C)c(C)nc3c2)cc1	11.5%
Cn1c(-c2ccccc2)cnc1NCc1ccccc1	9.64%
O=C(Nc1nnc(C2CCCCC2)s1)c1cccs1	15.8%
O=C(NNC(=S)Nc1ccccc1)c1cccnc1	-2.98%

SMILES	hERG current change (%, negative = inhibition) at 1uM
CN(CC(=O)N1CCCCCC1)S(=O)(=O)c1ccc(F)cc1	14.7%
Cc1ccc(C(=O)C(OC(=O)COc2ccccc2C)c2ccccc2)cc1 (stereo not drawn)	5.27%
CCOC(=O)c1[nH]c(C)c(C(=O)N2CCN(c3cccc(Cl)c3)CC2)c1C	-2.34%
Cc1ccc(-c2nnn(CC(=O)N(CC(=O)NC3CCCCC3)c3cnc4ccccc4c3)n2)o1	-4.11%
COc1ccc(N/C(N)=N/c2nc(CSc3ccc(Cl)cc3)cc(=O)[nH]2)cc1	13.8%
Cc1ccc(NC(=O)COC(=O)C2CC2)cc1Cl	5.57%
CCOc1ccc(CNC(=O)C2CCN(c3nn4c(=O)cc(C)nc4s3)CC2)cc1	-2.79%
O=C1C2C(c3ccccc3)C=CC(c3ccccc3)C2C(=O)N1CCCO (stereo not drawn)	5.52%
CCCCN1C(=S)NC[C@@H]1C(C)CC (stereo partly drawn)	12.8%
Nc1c(C(=O)NCCN2CCOCC2)c2nc3ccccc3nc2n1Cc1ccccc1	10.6%
CCc1ccc(OCC(=O)N(C)C)c(Br)c1	-0.248%
COc1ccc2c(c1)c(C(=O)OCCN(C)C)c(C)n2C.Cl	10.4%
COC(=O)c1ccccc1NC(=O)c1ccccc1N(C)S(=O)(=O)c1ccccc1	10.8%
O=c1c2c(-c3ccc(Cl)cc3)csc2ncn1/N=C/c1cccc([N+](=O)[O-])c1O	3.76%
COc1ccc(NC(=O)C(C)SCc2ccccc2)cc1 (stereo not drawn)	5.37%
O=C(/C=C/c1ccc2c(c1)OCO2)Nc1c(C(=O)O)[nH]c2ccccc12	9.83%
O=C(Cn1cc2c(n1)CCCC2)Nc1ccccc1Cl	11.8%
CCN1CCN(S(=O)(=O)CC2(C)C3CCC2(C)C(=O)C3Br)CC1 (stereo not drawn)	9.87%
CC1CC(C)CN(S(=O)(=O)N2CCCC(C(=O)NCCCN3CCCCC3C)C2)C1 (stereo not drawn)	1.35%
O=C(Cc1cccs1)N1CCN(S(=O)(=O)c2ccc(Br)cc2)CC1	6.64%
Cc1oc(C(=O)O)cc1CSc1nnc(-c2ccccc2)n1C	1.36%
CCOC(=O)c1sc(-c2ccc(F)cc2)cc1NC(=O)Nc1ccccc1OC	-2.89%
Cc1cccc(Cn2c(N3CCN(c4ccccc4)CC3)nc3c2c(=O)n(C)c(=O)n3C)c1	-10.7%

SMILES	hERG current change (%, negative = inhibition) at 1uM
Cc1ccc(-n2c(SC3CCOC3=O)nc3ccccc3c2=O)cc1 (stereo not drawn)	-5.71%
Cc1ccc(CNC(=O)CNC(=O)[C@@H]2Cc3ccccc3CN2C(=O)OC(C)(C)C)cc1	1.62%
CCN(C(=O)COn1nnc2ccc(S(=O)(=O)N(C)C)cc21)C1CCS(=O)(=O)C1 (stereo not drawn)	9.66%
CC(=O)Nc1ccc(NC(=O)COc2cc(O)c3c(c2)OC(C)(C)CC3=O)cc1	-6.05%
COc1ccc(OC)c(C(=O)COC(=O)C(CCSC)NC(=O)COc2ccccc2)c1 (stereo not drawn)	-1.63%
Cc1nc(SCC(=O)c2cc3ccccc3oc2=O)c(C#N)c(-c2ccccc2)c1C(=O)Nc1ccccc1	0.99%
COC(=O)N/N=C/c1ccc(-c2ccc(Cl)c(Cl)c2)o1	7.64%
CCNCc1ccc(OCc2cccs2)c(OCC)c1	9.84%
CCc1cccc(C)c1NC(=O)C1CCCN(S(C)(=O)=O)C1 (stereo not drawn)	20.8%
CCOC(=O)c1c(-c2ccc(C)cc2)csc1NC(=S)NC(=O)c1ccccc1	6.98%
CC(C)c1cccc(O)c(=O)c1	3.29%
Cc1ccccc1OCCC(=O)Nc1ccc(Cl)cc1F	11.5%
CSc1cccc(NC(=O)CSc2ccc(Cl)cc2)c1	10.6%
Cc1nc2cc(C(F)(F)F)ccc2n1CCNc1nc(-c2ccc([N+](=O)[O-])c(Cl)c2)cs1	-0.503%
Cc1ccc2nc(C)cc(C(=O)N/N=C/c3ccncc3)c2c1	8.95%
CC(OC(=O)c1ccc2ncsc2c1)C(=O)N1CCCC1 (stereo not drawn)	-30.7%
COc1ccc(N(CC(=O)N/N=C/c2cccs2)S(=O)(=O)c2ccccc2)cc1	18.3%
Cc1nnc(SCC(=O)Nn2cnnc2)s1	-5.95%
CCC(=O)N(C(=O)CC)N1CCN(c2ccncc2S(=O)(=O)N2CCCCC2)CC1	-25.4%
CCN1/C(=C\C=C\C2=[N+](CC)c3ccccc3C2(C)C)C(C)(C)c2ccccc21.[O-][Cl+3]([O-])([O-])[O-]	-86.1%
COC(=O)c1cccnc1Oc1ccccc1	6.52%
CCc1c(C)nc(N)n2c(SCC(=O)N3CCCc4ccccc43)nnc12	4.67%
CCOc1ccc(CNc2nc3ccccc3n2C)cc1	8.49%

SMILES	hERG current change (%, negative = inhibition) at 1uM
CCOc1cc(S(=O)(=O)N2CCCCC2)ccc1Cl	12%
COc1ccc(S(=O)(=O)N(C)c2ccc(C(=O)N3CCCC3)cc2)cc1OC	15.4%
Cc1cc(C(=O)N/N=C/c2cccc([N+](=O)[O-])c2)c(C)o1	6.99%
CCOCCCn1c(=O)c(NC(=O)c2ccc(OCC)cc2)c2n(c1=S)CCCCC2	7.94%
CC(=O)Nc1cccc(NC(=O)CSc2nc3c(c(=O)n(C)c(=O)n3C)n2C)c1	-11%
CS(=O)(=O)N(CC(=O)Nc1c(F)cccc1F)Cc1ccccc1	10.3%
CC1(C)CC(=O)c2c(Cc3ccccc3)noc2C1	8.4%
CCOC(=O)CCCCNCc1ccccc1.Cl	-0.854%
O=C(COC(=O)/C=C/c1cccc(Cl)c1)NCCC1=CCCCC1	-10.2%
Cc1c(Cl)ccc(S(=O)(=O)Nc2cccnc2)c1Cl	13.8%
CCOC(=O)CC1Sc2ccccc2NC1=S (stereo not drawn)	9.88%
CCOC(=O)C1=C(C)C(c2cccc(Oc3ccccc3)c2)NC(=S)N1 (stereo not drawn)	6.73%
CCOC(=O)c1cc2sccc2n1CC(=O)N1c2ccccc2CC1C (stereo not drawn)	7.07%
Nc1nonc1-c1nc2ccccc2n1Cc1ccc(Cl)cc1	-7.76%
O=C(Nc1ccc(F)cc1F)N1CCCN(CCOc2ccccc2)CC1	-19.7%
CCOC(=O)N1CCN(C(=O)C2COc3ccccc3O2)CC1 (stereo not drawn)	9.53%
O=C(c1ccc(C(F)(F)F)cc1)N1CCC(=O)N(C(CO)Cc2ccccc2)CC1 (stereo not drawn)	9.19%
Cc1ccc(C(=O)c2ccccc2C(=O)OCC(=O)NCC2CCCO2)cc1 (stereo not drawn)	9.58%
COC(=O)CCc1nc2cc(Cl)ccc2n(Cc2ccccc2)c1=O	-8.16%
COc1ccccc1NC(=O)C(C)NS(=O)(=O)c1ccc(F)cc1 (stereo not drawn)	4.97%
O=C(NCc1ccc(F)cc1)C(c1cccs1)N(C(=O)c1csnn1)C1CC1 (stereo not drawn)	2.42%
